FireProtDB (doi:10.1016/j.bpc.2007.12.006)

Conditions: Gallus gallus, pH 2, CD, KCl-HCl 0.1 M, reversible: Yes

Lysozyme C wild type (sequence left out)
unfolding free energy (25 °C, Urea): 4.19 kcal/mol | heat capacity change of unfolding (Thermal): 2.71 kcal/mol/K
